Results published in paper PMC4336329 (PLoS ONE, 2015).
Hit rate of the full screen: of about 310,000 compounds, about 14,000 (4.5%) showed an effect of 50% or more. The effect is printed as a negative number. The list shows a part of the results.

Molecular target: human ether-à-go-go-related gene (hERG) potassium channel (human, UniProt Q12809)
Test: primary screen, population patch clamp on CHO cells stably expressing hERG
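Also: peak tail current of the secondary pulse compared with the same well before compound.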

human ether-à-go-go-related gene (hERG) potassium channel, sequence (Q12809 whole entry, looked up): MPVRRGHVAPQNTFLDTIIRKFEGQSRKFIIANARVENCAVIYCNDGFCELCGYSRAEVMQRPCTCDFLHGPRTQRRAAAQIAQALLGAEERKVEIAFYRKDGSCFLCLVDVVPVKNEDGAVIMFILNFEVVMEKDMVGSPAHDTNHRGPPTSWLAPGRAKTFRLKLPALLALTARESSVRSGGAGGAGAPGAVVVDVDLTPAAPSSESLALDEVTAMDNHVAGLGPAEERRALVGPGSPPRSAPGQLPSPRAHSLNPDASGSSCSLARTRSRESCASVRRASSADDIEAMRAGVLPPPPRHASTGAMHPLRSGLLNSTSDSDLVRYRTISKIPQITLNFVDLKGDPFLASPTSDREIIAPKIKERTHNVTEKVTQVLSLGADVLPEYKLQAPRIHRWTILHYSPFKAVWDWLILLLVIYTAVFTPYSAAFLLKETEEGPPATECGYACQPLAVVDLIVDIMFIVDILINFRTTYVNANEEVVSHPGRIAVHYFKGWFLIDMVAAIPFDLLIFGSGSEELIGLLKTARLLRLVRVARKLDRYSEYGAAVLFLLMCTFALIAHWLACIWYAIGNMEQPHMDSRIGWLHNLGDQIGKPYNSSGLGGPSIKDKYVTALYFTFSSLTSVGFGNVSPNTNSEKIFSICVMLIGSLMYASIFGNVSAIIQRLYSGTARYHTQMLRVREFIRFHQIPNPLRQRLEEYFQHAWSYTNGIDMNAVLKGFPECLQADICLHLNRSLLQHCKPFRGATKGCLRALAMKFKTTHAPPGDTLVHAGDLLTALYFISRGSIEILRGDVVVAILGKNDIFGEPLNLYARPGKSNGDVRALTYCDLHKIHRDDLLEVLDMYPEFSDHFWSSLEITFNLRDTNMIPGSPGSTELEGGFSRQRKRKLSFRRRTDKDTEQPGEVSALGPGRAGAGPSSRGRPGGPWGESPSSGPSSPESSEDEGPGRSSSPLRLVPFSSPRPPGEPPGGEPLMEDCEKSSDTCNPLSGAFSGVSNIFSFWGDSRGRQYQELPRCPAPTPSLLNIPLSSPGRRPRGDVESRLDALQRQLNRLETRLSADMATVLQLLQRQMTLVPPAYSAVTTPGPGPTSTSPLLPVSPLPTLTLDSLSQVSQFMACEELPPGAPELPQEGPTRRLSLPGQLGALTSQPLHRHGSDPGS

Compound	hERG current change (%, negative = inhibition) at 10uM [%]
COC1CCCN(Cc2c(C(=O)N3CCN(C4CCCCC4)CC3)nc3ccccn23)C1 (stereo not shown)	8.21
COc1ccc(N2CCN(C(=O)CSc3nnc(-c4ccco4)n3C)CC2)cc1	-10.4
O=C(Nc1ccc(OC(F)(F)F)cc1)C1=NCCN1	-17.2
COc1cccc(C(c2ccccc2)N2C3CCC2CN(S(=O)(=O)c2ccc(F)cc2)CC3)c1 (stereo not shown)	-3.21
CCc1nnc(NC(=O)C2CCCCC2)s1	-1.6
COc1ccc(Oc2ccc(-c3ccn[nH]3)cc2)cc1	-0.611
COCCn1c(SCC(=O)c2ccc3c(c2)OCCO3)nnc1-c1ccoc1C	-5.38
C/C(CCc1ccco1)=N/NC(=O)CCC(=O)Nc1ccc(Br)cc1	10.2
Cc1cc(C)c(NC(=O)CNC(=O)CNC(=O)C2CCCCC2)c(C)c1	-4.8
Cc1ccc(C(=S)N2CCN(Cc3ccccc3)CC2)cc1	-42.9
COC(=O)C(NC(=O)c1ccccc1)=C(C)C	0.816
COc1ccccc1C(=O)Nc1ccc(-c2nnc(SCC(=O)O)n2C)cc1	19.2
O=C(COC(=O)c1cc(-c2cccs2)nc2ccccc12)NCc1ccco1	-20.5
CC(C)[C@H](NC(=O)NC1CCN(Cc2ccccc2)CC1)C(=O)O	-2.64
CCC(Sc1nc2cc3c(cc2c(=O)n1Cc1ccco1)OCO3)C(=O)Nc1ccccc1OC (stereo not shown)	2.52
COCCNC(=O)c1ccc(N2CC3CC(C2)c2cccc(=O)n2C3)c(NC(=O)c2ccc(F)cc2)c1 (stereo not shown)	12.3
COc1ccc(/C=N/NC(=O)c2ccn[nH]2)cc1Cn1cc([N+](=O)[O-])cn1	9.25
NNC(=O)CCN1CCN(C(c2ccccc2)c2ccccc2)CC1	-7.7
COc1cccc(N2CCN(C(=O)C3CCCN(S(=O)(=O)c4cnc[nH]4)C3)CC2)c1 (stereo not shown)	17.4
CC(=O)Oc1c(S(=O)(=O)c2ccccc2)c(C)nn1C(C)(C)C	-8.37
COc1ccc(-c2nc(Cn3c(SCc4cccc(F)c4)nc4ccncc43)c(C)o2)cc1OC	-62.4
Cc1nn(C)cc1-c1cc(C(=O)O)c2ccccc2n1	12.4

Compound	hERG current change (%, negative = inhibition) at 10uM [%]
CCc1cccc(CC)c1NC(=S)NCCc1c(C)[nH]c2ccc(C)cc12	-27
O=C(CCCO)NNc1c2ccccc2nc2ccccc12	-27
Cc1nc2ccccc2n1Cc1ccc(Cl)cc1	-2.56
COc1cc(NC(=O)c2cc3ccccc3o2)c(OC)cc1Br	5.55
CC(=O)c1sc(NC(=O)c2ccc(Br)o2)nc1C	13.9
Cn1c(=O)c([N+](=O)[O-])c(NC2CCS(=O)(=O)C2)c2ccccc21 (stereo not shown)	6.46
Cc1cccc(N2C(=O)c3ccc(C(=O)Nc4cccc(C(=O)O)c4)cc3C2=O)c1	5.29
CC(=O)Nc1ccc2nc(SCC(=O)O)sc2c1	9.25
O=C(O)c1ccc(NCc2ccc(Br)cc2)cc1	6.53
CC(=O)Nc1ccc(S(=O)(=O)Oc2cccc(N3C(=O)C4CC=CCC4C3=O)c2)cc1 (stereo not shown)	-13.1
O=[N+]([O-])c1ccc(Oc2ccc(S(=O)(=O)N3CCOCC3)cn2)cc1	-32.6
Cc1occc1C(=O)OCC(=O)Nc1ccc(F)cc1	-7.55
CCCc1cc(=O)oc2cc(C)cc(OC(C)C(=O)NCC(O)c3ccccc3)c12 (stereo not shown)	7.42
CCCCCCCC(=O)NNC(=O)c1c(O)c2ccccc2n(CCC)c1=O	13.2
CN(C)S(=O)(=O)c1ccc(C(=O)OCC2CC2(Cl)Cl)cc1 (stereo not shown)	10.7
Cc1cc(-c2ccc(C)c(S(=O)(=O)N3CCN(c4ccc([N+](=O)[O-])cc4)CC3)c2)on1	-67.8
COc1ccc(OC)c(S(=O)(=O)N(C)CC(=O)N2CCN(c3ccccc3F)CC2)c1	-6.63
O=C(CNC(=S)N(CCCN1CCOCC1)Cc1cccs1)N1CCCC1	3.09
CC(C)CCOP(=O)(c1ccc(N(C)C)cc1)C(Nc1ccccc1)c1ccc(N(C)C)cc1 (stereo not shown)	0.941
O=C(CN1CCN(c2ccccn2)CC1)Nc1cccc(Br)c1	-38.2
Clc1cc(Cl)c(OCCCCn2cncn2)c(Cl)c1	-39.6
COc1ccc(-n2nnc3c(=O)n(C/C=C/c4ccccc4)cnc32)cc1	-23

Compound	hERG current change (%, negative = inhibition) at 10uM [%]
N=c1c2c(-c3ccccc3)c(-c3ccccc3)n(Cc3ccco3)c2ncn1CCCn1ccnc1	-74.3
COc1cccc(C(=O)NCC(c2ccco2)N2CCOCC2)c1 (stereo not shown)	5.65
CN(C)/C=N/c1nc2ccc3c(c2s1)CCCC3	5.76
COc1ccc(OCC(=O)N2CCC(Cc3ccccc3)CC2)cc1	-36
Cl.c1ccc(-c2nc(NCc3ccco3)c3ccccc3n2)cc1	-33.4
CCCCc1ccc(NC(=O)CSc2nc(=O)n(CCN3CCOCC3)c3c2CCC3)cc1	-66.5
COc1ccc(-c2c(-c3ccsc3)oc3ccc(N4CCOCC4)cc23)cn1	7.49
CCOc1ccc2c(c1)/C(=N/N1C(=O)c3ccccc3C1=O)C(=O)N2	23.6
O=C1C(=O)N(Cc2ccccc2)C(=O)N1CCN1C(=O)c2ccccc2C1=O	-11.6
O=C(NC1CCSc2ccccc21)c1ccc(C(F)(F)F)cc1 (stereo not shown)	4.92
CCCNC(=O)NC(=O)CSc1nc2ccccc2n1CC(C)C	-27.7
Cc1[nH]c(=O)[nH]c(=O)c1CSc1nnc([C@H](CC(C)C)NC(=O)OC(C)(C)C)o1	1.9
O=C(COc1ccc2c(c1)CCC2)N1CCN(c2ccccc2F)CC1	-6.13
CN(CC(=O)Nc1sccc1C#N)C1CCCCC1	5.5
COc1ccc(NC(=O)c2nn(C34CC5CC(CC(C5)C3)C4)cc2[N+](=O)[O-])cc1	-0.0263
CC(=O)NCC1CCCN(Cc2cn(-c3ccccc3F)nc2-c2cc(C)sc2C)C1 (stereo not shown)	-19.1
COCCN(C(=O)C1CCN(C(=O)c2ccccc2C)CC1)c1c(N)n(CC(C)C)c(=O)[nH]c1=O	10.2
N#Cc1ccc(-c2ccc(F)cc2)nc1Oc1ccc(F)cc1	7.47
Cc1ccccc1OCCC(=O)OCC(=O)Nc1ccc(C(N)=O)cc1	8.08
COc1ccc(Nc2nnc(C)c(=O)[nH]2)cc1	-6.61
COC(=O)c1sccc1-n1cccc1C(=O)C(=O)N1CCOCC1	-78.3
CCN(CC)C(=O)c1ccc(S(=O)(=O)NCc2cccnc2)cc1	13.9

Compound	hERG current change (%, negative = inhibition) at 10uM [%]
COC(=O)c1c(NC(=O)CC2SC(N)=NC2=O)sc2c1CCC(C(C)(C)C)C2 (stereo not shown)	6.31
CC(C)(C)C(=O)CSc1nccc(=O)[nH]1	-0.329
CCN(CC)C(=O)C1CCCN(C(=O)c2cc(COc3ccc4ncccc4c3)on2)C1 (stereo not shown)	7.9
O=C(c1cnn2c(C(F)(F)F)cc(-c3ccccc3)nc12)N1CCCCC1c1cccnc1 (stereo not shown)	-17.9
COc1ccccc1NC(=O)c1cc(C(=O)Nc2ccccc2OC)n(C)n1	19
Nc1ncc(Br)cc1S(=O)(=O)NCCc1ccccc1	13.7
COc1cc(OC)c(C2CC(=O)N3CN(C)CSC3=C2C#N)cc1OC (stereo not shown)	19.4
CC(OC(=O)Cc1coc2cc3c(cc12)CCC3)C(=O)NCc1ccc2c(c1)OCO2 (stereo not shown)	-8.93
CCOc1ccc(CN(C)C(C)C(=O)NCCc2ccc(F)cc2)cc1 (stereo not shown)	-71.5
COc1cccc(OC)c1C(=O)NC(=S)N1CCOCC1	17.2
CC(C)Oc1ccc(C(=O)NC2CCCCC2)cc1	10.3
COc1ccc(-c2noc(-c3ccccc3-c3ccccc3)n2)cc1OC	7.72
CN(C)C(=O)c1ccc(NC(=O)CSc2nc3ccccc3[nH]2)cc1	1.59
O=C(O)CN1C(=O)/C(=C/c2cccc(Cl)c2)Oc2ccccc21	-4.77
Cc1ccc(S(=O)(=O)N2CCCCC2)cc1NC(=O)COC(=O)C1CC2C=CC1C2 (stereo not shown)	-62
CCCNC(=O)Nc1nc(CC(=O)OCC)cs1	29.1
COc1ccc(S(=O)(=O)N2CCC3(CC2)OCCN3S(=O)(=O)c2ccc(C)cc2)cc1OC	-28.7
O=C(CN1C(=O)COc2ccc(S(=O)(=O)N3CCCC3)cc21)NC1CC1	7.44
COc1ccc(NC(=O)c2ccc(Cl)cc2)c[n+]1[O-]	12.9
O=C(COc1cccnc1[N+](=O)[O-])NCc1ccc(F)cc1	-18
COC(=O)c1cc(S(=O)(=O)Nc2nn(C)c3ccccc23)oc1C	14.3
COc1ccc(C(=O)CC(=O)c2ccccc2O)cc1OC	-2.72
